Drawing on patent publication US20130164251A1 (JIANGSU T MAB BIOPHARMA, published 2013), this text covers Kd for 19 molecules.

For orientation: Kd means the constant that tells how readily two partners part at equilibrium. A low value points to higher affinity.

The chains are these.
T1: G-CSF receptor G-CSFR (R & D company, Item No. 381GR/CF) (UniProt Q99062 25-621, limits assumed)
T1 construct: Bought reagent, amine-coupled to a CM5 chip; also called the receptor
T1 sequence (looked up): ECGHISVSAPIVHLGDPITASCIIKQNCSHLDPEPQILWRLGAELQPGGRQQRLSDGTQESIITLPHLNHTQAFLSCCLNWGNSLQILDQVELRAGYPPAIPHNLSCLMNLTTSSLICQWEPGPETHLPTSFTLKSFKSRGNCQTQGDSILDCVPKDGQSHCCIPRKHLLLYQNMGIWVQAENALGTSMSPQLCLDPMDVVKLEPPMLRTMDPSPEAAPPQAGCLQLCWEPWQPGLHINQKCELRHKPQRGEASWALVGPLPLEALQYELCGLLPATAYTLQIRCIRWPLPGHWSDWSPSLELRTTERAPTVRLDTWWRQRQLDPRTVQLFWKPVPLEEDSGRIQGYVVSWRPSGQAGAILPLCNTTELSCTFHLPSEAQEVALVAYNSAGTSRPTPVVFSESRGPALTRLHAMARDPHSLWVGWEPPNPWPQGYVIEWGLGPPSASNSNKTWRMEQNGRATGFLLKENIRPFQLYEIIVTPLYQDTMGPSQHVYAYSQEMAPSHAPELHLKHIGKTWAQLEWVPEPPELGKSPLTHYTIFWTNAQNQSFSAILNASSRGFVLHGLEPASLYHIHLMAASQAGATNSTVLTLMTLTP

B1: rHSA/G-CSF mutant K34H (ligand)
chain: [not shown - about 600 residues]TPLGPASSLPQSFLLKCLEQVRKIQGDGAALQEHLCATYKLCHPEELVLLGHSLGIPWAPLSSCPSQALQLAGCLSQLHSGLFLYQGLLQALEGISPELGPTLDTLQLDVADFATTIWQQMEELGMAPALQPTQGAMPAFASAFQRRAGGVLVASHLQSFLEVSYRVLRHLAQP
notes: expressed in Pichia pastoris
B2: rHSA/G-CSF mutant K34H + L41I (ligand)
chain: [not shown - about 600 residues]TPLGPASSLPQSFLLKCLEQVRKIQGDGAALQEHLCATYKICHPEELVLLGHSLGIPWAPLSSCPSQALQLAGCLSQLHSGLFLYQGLLQALEGISPELGPTLDTLQLDVADFATTIWQQMEELGMAPALQPTQGAMPAFASAFQRRAGGVLVASHLQSFLEVSYRVLRHLAQP
notes: expressed in Pichia pastoris
B3: rHSA/G-CSF mutant D112E (ligand)
chain: [not shown - about 600 residues]TPLGPASSLPQSFLLKCLEQVRKIQGDGAALQEKLCATYKLCHPEELVLLGHSLGIPWAPLSSCPSQALQLAGCLSQLHSGLFLYQGLLQALEGISPELGPTLDTLQLDVAEFATTIWQQMEELGMAPALQPTQGAMPAFASAFQRRAGGVLVASHLQSFLEVSYRVLRHLAQP
notes: expressed in Pichia pastoris
B4: rHSA/G-CSF mutant E123D (ligand)
chain: [not shown - about 600 residues]TPLGPASSLPQSFLLKCLEQVRKIQGDGAALQEKLCATYKLCHPEELVLLGHSLGIPWAPLSSCPSQALQLAGCLSQLHSGLFLYQGLLQALEGISPELGPTLDTLQLDVADFATTIWQQMEDLGMAPALQPTQGAMPAFASAFQRRAGGVLVASHLQSFLEVSYRVLRHLAQP
notes: expressed in Pichia pastoris
B5: rHSA/G-CSF mutant D109H + D112H (ligand)
chain: [not shown - about 600 residues]TPLGPASSLPQSFLLKCLEQVRKIQGDGAALQEKLCATYKLCHPEELVLLGHSLGIPWAPLSSCPSQALQLAGCLSQLHSGLFLYQGLLQALEGISPELGPTLDTLQLHVAHFATTIWQQMEELGMAPALQPTQGAMPAFASAFQRRAGGVLVASHLQSFLEVSYRVLRHLAQP
notes: Control mutant; expressed in Pichia pastoris; also called D110H and D113H of Sarker et al. (numbering with N-terminal Met)
B6: rHSA/G-CSF mutant K40H (ligand)
chain: [not shown - about 600 residues]TPLGPASSLPQSFLLKCLEQVRKIQGDGAALQEKLCATYHLCHPEELVLLGHSLGIPWAPLSSCPSQALQLAGCLSQLHSGLFLYQGLLQALEGISPELGPTLDTLQLDVADFATTIWQQMEELGMAPALQPTQGAMPAFASAFQRRAGGVLVASHLQSFLEVSYRVLRHLAQP
notes: expressed in Pichia pastoris
B7: rHSA/G-CSF mutant K16H (ligand)
chain: [not shown - about 600 residues]TPLGPASSLPQSFLLHCLEQVRKIQGDGAALQEKLCATYKLCHPEELVLLGHSLGIPWAPLSSCPSQALQLAGCLSQLHSGLFLYQGLLQALEGISPELGPTLDTLQLDVADFATTIWQQMEELGMAPALQPTQGAMPAFASAFQRRAGGVLVASHLQSFLEVSYRVLRHLAQP
notes: expressed in Pichia pastoris
B8: rHSA/G-CSF mutant E45D (ligand)
chain: [not shown - about 600 residues]TPLGPASSLPQSFLLKCLEQVRKIQGDGAALQEKLCATYKLCHPDELVLLGHSLGIPWAPLSSCPSQALQLAGCLSQLHSGLFLYQGLLQALEGISPELGPTLDTLQLDVADFATTIWQQMEELGMAPALQPTQGAMPAFASAFQRRAGGVLVASHLQSFLEVSYRVLRHLAQP
notes: expressed in Pichia pastoris
B9: rHSA/G-CSF mutant A37G (ligand)
chain: [not shown - about 600 residues]TPLGPASSLPQSFLLKCLEQVRKIQGDGAALQEKLCGTYKLCHPEELVLLGHSLGIPWAPLSSCPSQALQLAGCLSQLHSGLFLYQGLLQALEGISPELGPTLDTLQLDVADFATTIWQQMEELGMAPALQPTQGAMPAFASAFQRRAGGVLVASHLQSFLEVSYRVLRHLAQP
notes: expressed in Pichia pastoris
B10: rHSA/G-CSF mutant K40H + L41I (ligand)
chain: [not shown - about 600 residues]TPLGPASSLPQSFLLKCLEQVRKIQGDGAALQEKLCATYHICHPEELVLLGHSLGIPWAPLSSCPSQALQLAGCLSQLHSGLFLYQGLLQALEGISPELGPTLDTLQLDVADFATTIWQQMEELGMAPALQPTQGAMPAFASAFQRRAGGVLVASHLQSFLEVSYRVLRHLAQP
notes: expressed in Pichia pastoris
B11: rHSA/G-CSF mutant D109E (ligand)
chain: [not shown - about 600 residues]TPLGPASSLPQSFLLKCLEQVRKIQGDGAALQEKLCATYKLCHPEELVLLGHSLGIPWAPLSSCPSQALQLAGCLSQLHSGLFLYQGLLQALEGISPELGPTLDTLQLEVADFATTIWQQMEELGMAPALQPTQGAMPAFASAFQRRAGGVLVASHLQSFLEVSYRVLRHLAQP
notes: expressed in Pichia pastoris
B12: rHSA/G-CSF mutant C17S (ligand)
chain: [not shown - about 600 residues]TPLGPASSLPQSFLLKSLEQVRKIQGDGAALQEKLCATYKLCHPEELVLLGHSLGIPWAPLSSCPSQALQLAGCLSQLHSGLFLYQGLLQALEGISPELGPTLDTLQLDVADFATTIWQQMEELGMAPALQPTQGAMPAFASAFQRRAGGVLVASHLQSFLEVSYRVLRHLAQP
notes: expressed in Pichia pastoris
B13: rHSA/G-CSF mutant G4Y (ligand)
chain: [not shown - about 600 residues]TPLYPASSLPQSFLLKCLEQVRKIQGDGAALQEKLCATYKLCHPEELVLLGHSLGIPWAPLSSCPSQALQLAGCLSQLHSGLFLYQGLLQALEGISPELGPTLDTLQLDVADFATTIWQQMEELGMAPALQPTQGAMPAFASAFQRRAGGVLVASHLQSFLEVSYRVLRHLAQP
notes: expressed in Pichia pastoris
B14: rHSA/G-CSF mutant K34H + L35I (ligand)
chain: [not shown - about 600 residues]TPLGPASSLPQSFLLKCLEQVRKIQGDGAALQEHICATYKLCHPEELVLLGHSLGIPWAPLSSCPSQALQLAGCLSQLHSGLFLYQGLLQALEGISPELGPTLDTLQLDVADFATTIWQQMEELGMAPALQPTQGAMPAFASAFQRRAGGVLVASHLQSFLEVSYRVLRHLAQP
notes: expressed in Pichia pastoris
B15: rHSA/G-CSF mutant K34H + K40H (ligand)
chain: [not shown - about 600 residues]TPLGPASSLPQSFLLKCLEQVRKIQGDGAALQEHLCATYHLCHPEELVLLGHSLGIPWAPLSSCPSQALQLAGCLSQLHSGLFLYQGLLQALEGISPELGPTLDTLQLDVADFATTIWQQMEELGMAPALQPTQGAMPAFASAFQRRAGGVLVASHLQSFLEVSYRVLRHLAQP
notes: expressed in Pichia pastoris
B16: rHSA/G-CSF mutant A6G (ligand)
chain: [not shown - about 600 residues]TPLGPGSSLPQSFLLKCLEQVRKIQGDGAALQEKLCATYKLCHPEELVLLGHSLGIPWAPLSSCPSQALQLAGCLSQLHSGLFLYQGLLQALEGISPELGPTLDTLQLDVADFATTIWQQMEELGMAPALQPTQGAMPAFASAFQRRAGGVLVASHLQSFLEVSYRVLRHLAQP
notes: expressed in Pichia pastoris
B17: rHSA/G-CSF mutant L3T (ligand)
chain: [not shown - about 600 residues]TPTGPASSLPQSFLLKCLEQVRKIQGDGAALQEKLCATYKLCHPEELVLLGHSLGIPWAPLSSCPSQALQLAGCLSQLHSGLFLYQGLLQALEGISPELGPTLDTLQLDVADFATTIWQQMEELGMAPALQPTQGAMPAFASAFQRRAGGVLVASHLQSFLEVSYRVLRHLAQP
notes: expressed in Pichia pastoris
B18: rHSA/G-CSF mutant H43R (ligand)
chain: [not shown - about 600 residues]TPLGPASSLPQSFLLKCLEQVRKIQGDGAALQEKLCATYKLCRPEELVLLGHSLGIPWAPLSSCPSQALQLAGCLSQLHSGLFLYQGLLQALEGISPELGPTLDTLQLDVADFATTIWQQMEELGMAPALQPTQGAMPAFASAFQRRAGGVLVASHLQSFLEVSYRVLRHLAQP
notes: expressed in Pichia pastoris
B19: rHSA/G-CSF mutant E46D (ligand)
chain: [not shown - about 600 residues]TPLGPASSLPQSFLLKCLEQVRKIQGDGAALQEKLCATYKLCHPEDLVLLGHSLGIPWAPLSSCPSQALQLAGCLSQLHSGLFLYQGLLQALEGISPELGPTLDTLQLDVADFATTIWQQMEELGMAPALQPTQGAMPAFASAFQRRAGGVLVASHLQSFLEVSYRVLRHLAQP
notes: expressed in Pichia pastoris

The test deals with T1, G-CSF receptor G-CSFR (R & D company, …). Put plainly: SPR (Biacore 3000), G-CSFR amine-coupled to CM5 chip, 1:1 Langmuir fit. As for the experimental part: The receptor G-CSFR (R & D company, Item No. 381GR/CF) was coupled to FC₄ cell of a CM5 chip by using an amine coupling method in Biacore® 3000 control software Wizard. HBS-P buffer (10 mM HEPES, 150 mM NaCl, and 0.005% (v/v) surfactant P20, pH 7.4) was used as the working buffer, and 1 mg/mL of G-CSFR was diluted with 10 mM NaAC (pH 4.5) to a final concentration of 20 μg/mL. A 1:1 mixture of 0.2 M EDC and 50 mM NHS was injected by flowing through the surface of the chip at a rate of 10 μL/min, G-CSFR solution was injected, then 1 M ethanolamine (pH 8.5) was injected for 7 min to block the activated chip surface.
rHSA/mG-CSF and G-CSF standards were quantitatively diluted with a HBS-P buffer, and a kinetic test was conducted following a kinetic analysis Wizard in Biacore® 3000 control software. All the samples were injected at the flow rate of 30 μL/min, and the injection time of 3 min. After 5 min of disassociation, 50 mM NaOH, 1 M NaCL, and HBS-P buffer were respectively injected for 15 s and 60 s at a flow rate of 100 μL/min for regeneration. The obtained data was fitted using a 1:1 Langmuir binding model in Biacore 3000 analysis software, to obtain exact kinetic constants: […]
(SPR reads the build-up and loss of mass on a sensor chip optically.)
Take B1: the Kd was 18.4 nM.

On to B2, for which binding was characterised by a dissociation constant (Kd) of 28.5 nM.

B3 gave a Kd of 3.1 nM.

Turning to B4, the Kd stood at 1.5 nM.

Turning to B5, the affinity, expressed as Kd, was 5.3 nM.

Turning to B6, the Kd was 25.2 nM.

Turning to B7, binding was put at a Kd of 7.3 nM.

Regarding B8, binding was characterised by a dissociation constant (Kd) of 0.8 nM.

B9 gave a Kd of 7.4 nM.

In turn, B10 showed a Kd of 30.6 nM.

With B11, the Kd was found to be 6.5 nM.

Consider B12, for which binding was put at a Kd of 1.3 nM. Compared with the last molecule, the Kd is about 5-fold lower.

As for B13, binding was characterised by a dissociation constant (Kd) of 1.1 nM.

In turn, B14 displayed a Kd of 42.7 nM.

Take B15: the Kd came out at 40.1 nM.

The molecule B16 returned a Kd of 8.9 nM.

The molecule B17 registered a dissociation constant Kd of 1.8 nM. Compared with the last molecule, the Kd is about 4.9-fold lower.

Molecule B18 gave a Kd of 4.3 nM.

B19 registered a Kd of 8.5 nM.
